In PubChem BioAssay AID2675 (National Center for Advancing Translational Sciences (NCATS), 2010):
Out of some 280,000 compounds screened, about 100 (0.036%) were called active. The inconclusive results got no clear call from the source; some entries with a clear call stand among them for comparison. Calls follow the shape of the dose curve; as a rule, active = well fitted inhibition curve with a large enough effect in the signal ratio, with a control signal flat (not every such curve was filed as active); inconclusive = small, poorly fitted or top-dose-only effect, or effect the other way, or a change in a side signal; inactive = no such curve, though single readings can be large or run the other way; the % refers to the signal ratio. Potencies of inconclusive entries are doubtful fits and often do not repeat. “Side channel” marks fits to a control or component signal instead of the main read-out.
Potency is read from the fitted curve at half-maximal effect; tags tell the direction and shape of the fitted curve or compound fluorescence and quenching.

What follows are compounds tested against Muscleblind-like protein 1 (Homo sapiens) (UniProt Q9NR56) (assay: qHTS Assay for Inhibitors of MBNL1-poly(CUG) RNA binding). Settings: TR-FRET MBNL1-His/biotin-(CUG)12 binding, 665/545 ratio; series mostly up to 57.5 µM.
Sequence of UniProt Q9NR56 (Q9NR56 whole entry, looked up): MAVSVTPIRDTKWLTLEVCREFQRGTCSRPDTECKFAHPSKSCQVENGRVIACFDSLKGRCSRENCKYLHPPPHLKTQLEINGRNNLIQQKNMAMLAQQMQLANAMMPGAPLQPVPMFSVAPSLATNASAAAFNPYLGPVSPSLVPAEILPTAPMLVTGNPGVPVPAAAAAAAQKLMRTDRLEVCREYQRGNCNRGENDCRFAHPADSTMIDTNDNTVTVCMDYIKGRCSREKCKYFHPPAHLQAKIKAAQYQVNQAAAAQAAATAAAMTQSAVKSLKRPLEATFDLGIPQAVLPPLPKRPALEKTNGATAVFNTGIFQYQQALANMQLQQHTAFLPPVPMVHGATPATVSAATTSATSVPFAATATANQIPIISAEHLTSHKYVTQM
Procedure, shortened: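 TR-FRET between His-tagged MBNL1 and biotin-(CUG)12 RNA, detected with Tb anti-His antibody (0.055 ng/ul) and streptavidin-XL665 (5 nM), 60 min at room temperature. Compounds titrated 92 nM to 58 uM; 665/545 nm ratio normalized to buffer and complex controls.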
With `O=S(=O)(c1ccccc1F)N1CCC(Oc2ccc(-n3cnnn3)cc2)CC1` the Potency was “inactive”.
In the case of `Cc1cc(C)c[n+](-c2[nH]c(=O)sc2/C=N/N=C(\[O-])c2cccnc2)c1`, the Potency is reported as inconclusive: 15.8 µM [quencher, side channel, partial curve].
In the case of `Cc1ccc(C)c(N(C(=O)c2csnn2)C(C(=O)NC2CCCC2)c2cccnc2)c1` (centres undefined), the Potency is reported as inconclusive: 0.141 µM [quencher, side channel, full curve, poor fit].
With `Cc1nnc(N/N=C\c2ccc(-c3ccccc3[N+](=O)[O-])o2)n1N` the Potency was inconclusive: 25.1 µM [quencher, side channel, partial curve].
`CN(C)/C=N/C(=S)Nc1ccc(Cl)cc1Cl` was tested, and the Potency was “inactive”.
`O=C(CN1C(=O)S/C(=C/c2ccncc2)C1=O)N1CCOCC1` was tested, and the Potency was inconclusive: 39.8 µM [quencher, single point].
With `CCC(C)(C)n1nnnc1C(c1cc2cc(C)ccc2[nH]c1=O)N1CCCC1` (centres undefined) the Potency was inconclusive: 31.6 µM [quencher, side channel, single point].
With `Cc1ccc(NS(=O)(=O)c2cccc3cccnc23)c(Cl)c1` the Potency was “inactive”.
For `COc1ccc2cc(C(=O)C3CCCN(C(=O)c4sc(C)nc4C)C3)ccc2c1` (centres undefined), the Potency was inconclusive: 28.2 µM [quencher, side channel, single point].
In the case of `Oc1c(C=Nc2ccccc2Cl)[nH]c2ccccc12`, the Potency is reported as inconclusive: 35.5 µM [quencher, side channel, single point].
For `COc1ccc(Nc2nnc(-c3ccc(C(N)=O)cc3)c3ccccc23)cc1`, the Potency was inconclusive: 15.8 µM [quencher, side channel, partial curve].
For `Cc1nn(-c2ccccc2)c(N2CCCC2)c1/C=C1\N=C(c2ccc(OC(C)C)cc2)OC1=O`, the Potency was “inactive”.
For `Cc1nc(-c2ccc(S(=O)(=O)N3CCCN(CCc4ccccc4)CC3)s2)cs1`, the Potency was inconclusive: 39.8 µM [quencher, side channel, single point].
In the case of `Cc1ccc2cc3cc(C(=O)NCCCN4CCCC4)oc3nc2c1`, the Potency is reported as inconclusive: 5.62 µM [quencher, side channel, full curve].
With `COc1ccc(/C=C2/Sc3ccc(C(=O)NCCN4CCCCCC4)cc3NC2=O)cc1` the Potency was inconclusive: 28.2 µM [quencher, side channel, single point].
With `Cc1cc(NC(=O)c2ccccc2)nc2c1c(=O)oc1ccccc12` the Potency was inconclusive: 39.8 µM [fluorescent, single point].
For `CC(=O)c1sc2nsc(SCCN3CCCCC3)c2c1N`, the Potency was inconclusive: 11.2 µM [quencher, side channel, partial curve].
For `CC1(C)C(=O)OC(c2cc(Br)ccc2O)C(C)(C)C1=O` (centres undefined), the Potency was inconclusive: 0.794 µM [fluorescent, side channel, single point].
In the case of `CCCCN(CC)CCNC(=O)c1cc2c(-c3ccccc3F)nn(C)c2s1`, the Potency is reported as “inactive”.
With `CN(C)c1ccc(NC(=O)CCN2C(=O)c3cccc([N+](=O)[O-])c3C2=O)cc1` the Potency was inconclusive: 12.6 µM [quencher, partial curve].
In the case of `CC(=O)c1ccc(N2CCN(C(=O)c3cc(-c4ccncc4)nc4ccc(Cl)cc34)CC2)cc1`, the Potency is reported as “inactive”.
With `CCO/C(C)=C1/SC(=S)NC1=O` the Potency was inconclusive: 28.2 µM [quencher, side channel, partial curve].
For `COc1ccc(Br)cc1/C=N/NC(=O)c1cccnc1`, the Potency was inconclusive: 28.2 µM [quencher, side channel, single point].
With `O=c1[nH]c2ccc(Cl)cc2c(-c2ccccc2)c1[N+](=O)[O-]` the Potency was “inactive”.
For `O=[N+]([O-])c1ccc(N=Cc2c(O)ccc3ccccc23)cc1`, the Potency was inconclusive: 17.8 µM [quencher, side channel, partial curve].
With `COCCCNC(=O)/C(C#N)=C/c1c(N2CCN(C)CC2)nc2c(C)cccn2c1=O` the Potency was inconclusive: 8.91 µM [quencher, partial curve].
In the case of `CCN(CC)CCN1C(=O)C(=O)/C(=C(/O)c2ccc(Cl)cc2)C1c1ccncc1` (centres undefined), the Potency is reported as inconclusive: 25.1 µM [quencher, side channel, single point].
For `COc1ccc(-c2nc(-c3ccccn3)ncc2S(C)(=O)=O)cc1`, the Potency was “inactive”.
`CC(=O)Nc1ccc(NC(=O)C2CCN(S(=O)(=O)c3cccc4nonc34)CC2)cc1` was tested, and the Potency was inconclusive: 3.55 µM [quencher, side channel, full curve].
With `CCCNC(=S)N(Cc1cc2cc(C)ccc2n2nnnc12)CC(C)(C)CN(C)C` the Potency was inconclusive: 5.62 µM [fluorescent, side channel, single point].
With `CSCC[C@H](NC(=O)c1nn(C)c(=O)c2ccccc12)c1nc2ccccc2[nH]1` the Potency was “inactive”.
With `CO[C@H]1C=CO[C@@]2(C)Oc3c(C)c(O)c4c(O)c(c(C=NN5CCN(C6CCCC6)CC5)c(O)c4c3C2=O)NC(=O)C(C)=CC=C[C@H](C)[C@H](O)[C@@H](C)[C@@H](O)[C@@H](C)[C@H](OC(C)=O)[C@@H]1C` the Potency was inconclusive: 15.8 µM [quencher, partial curve].
In the case of `O=C(CSc1cccc2cccnc12)N/N=C/c1cccc(O)c1`, the Potency is reported as inconclusive: 11.2 µM [quencher, side channel, partial curve].
`CCS(=O)(=O)c1ccc(Sc2nncn2C)c([N+](=O)[O-])c1` was tested, and the Potency was inconclusive: 14.1 µM [quencher, side channel, partial curve].
`COc1ccc(C(=O)COC(=O)c2ccc(NC(C)=O)cc2)cc1[N+](=O)[O-]` was tested, and the Potency was inconclusive: 7.08 µM [quencher, side channel, partial curve].
For `CC(C)(C)NC(=O)c1ccc2nccnc2c1`, the Potency was “inactive”.
`Cc1ccnc(NC(=O)CN(C)S(=O)(=O)c2cccc3nsnc23)c1` was tested, and the Potency was inconclusive: 5.62 µM [quencher, side channel, partial curve].
With `O=S(=O)(NCc1ccc2c(c1)OCO2)c1ccc(Cl)s1` the Potency was “inactive”.
In the case of `O=C(/C=C/Nc1ccc(F)c(F)c1)c1cccs1`, the Potency is reported as inconclusive: 10 µM [quencher, side channel, partial curve].
